# Measured values from the supplement of paper PMC10126150.
# Values marked as one replicate rest on one cluster of the flow cell; about a third of the high ones do not repeat.
# System: ATP
# Assay: switch fluorescence ratio, 500 uM ATP over buffer (Cy3 cluster intensity, sum of 5 cycles each) (fold (ratio)); higher = stronger signal-on switching upon ATP binding; sequences stand for … in TCGTCGGCAGCGTCAGATGTGTATAAGAGACAGTTTTTTTTTTTTTTTTTTTTTTTTT…TC
# Details: aptamer strand: ATP DNA aptamer (quencher-CACCTGGGGGAGTATTGCGGAGGAAGG + anchor), 100 nM annealed; ATP concentration: 500 uM; one replicate
# How it was run: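 Switching-strand clusters labelled with Cy3 on a modified Illumina MiSeq flow-cell were annealed to 100 nM quencher-labelled ATP aptamer, imaged in selection buffer, and re-imaged after 15 min with 500 uM ATP at 22 °C. This was done over five cycles with NaOH stripping and re-annealing in between. The fluorescence ratio is summed target-cycle over summed buffer-cycle Cy3 intensity per cluster, averaged per switch-domain sequence, excluding clusters outside 100-1000 RFU.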
# 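Further: ATP exposure 15 min at 22 °C before imaging.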
row,Sequence,switch fluorescence ratio
1,AGCGGTTGCG,1.07
2,AGCGTACTGC,1.09
3,AGCGTAGCGG,1.07
4,AGCGTAGTCC,1.06
5,AGCGTCGATA,1.03
6,AGCGTGAAA,0.99
7,AGCGTGCGCC,0.999
8,AGCGTTATTG,0.959
9,AGCGTTTTG,0.993
10,AGCGTTTTGG,0.964
11,AGCTAAGGTG,2.39
12,AGCTAATAT,1.1
13,AGCTAATTC,1.17
14,AGCTCCACAG,1.14
15,AGCTGAGA,0.959
16,AGCTGAGCGG,0.984
17,AGCTGAGGGT,0.946
18,AGCTGATAG,1.09
19,AGCTGCGAGC,0.971
20,AGCTGCGCAG,1.02
21,AGCTGGCGGT,0.955
22,AGCTGGTGTG,0.97
23,AGCTGTTAGG,1.01
24,AGCTGTTTGA,1.04
25,AGCTTAAAAT,1.01
26,AGCTTAGCAT,0.993

row,Sequence,switch fluorescence ratio
1,AGCTTCGCGA,1.09
2,AGCTTTCAGG,1.04
3,AGCTTTGTGG,0.985
4,AGCTTTTGCC,1
5,AGGAAAATTA,0.976
6,AGGAAATTC,1.3
7,AGGAACCAAT,1.02
8,AGGAACTCGG,1.08
9,AGGAAGCACC,1.16
10,AGGAAGTAGT,1.02
11,AGGAATGGG,1.02
12,AGGACACTCG,0.935
13,AGGACAGTG,1.01
14,AGGACCCCAT,1.06
15,AGGACCTAAC,1.03
16,AGGACGGTTG,0.962
17,AGGACGTGCG,1.02
18,AGGACGTTCC,1.26
19,AGGACTCCAA,1.04
20,AGGACTGGAT,0.97
21,AGGACTGTGC,1.02
22,AGGAGAACAA,1.03
23,AGGAGAATAC,1.2
24,AGGAGAGCAG,1.16
25,AGGAGATCTC,1.06
26,AGGAGCGGGA,0.932

row,Sequence,switch fluorescence ratio
1,AGGAGCTCCG,1.09
2,AGGAGGGGAC,1.12
3,AGGAGGTACA,0.956
4,AGGAGGTACT,1.03
5,AGGAGGTGG,0.94
6,AGGAGTGCGT,1.01
7,AGGAGTGGCA,1.05
8,AGGAGTTCCG,1.09
9,AGGATAGACA,1
10,AGGATAGCAT,1.02
11,AGGATCAGGG,0.973
12,AGGATCCATC,0.994
13,AGGATCCCGG,1.05
14,AGGATGCACA,0.97
15,AGGATGCTAC,1.13
16,AGGATGCTGG,1.08
17,AGGATGGGTC,1
18,AGGATGTGCG,0.972
19,AGGATGTTA,0.958
20,AGGATTACTC,1.21
21,AGGATTGGCT,0.989
22,AGGCAATTGC,1
23,AGGCACTTGG,1.03
24,AGGCAGGAAC,1.29
25,AGGCATGTCG,1.1
26,AGGCCATTTT,1.04

row,Sequence,switch fluorescence ratio
1,AGGCCCTAGA,0.953
2,AGGCCGCCTG,1.03
3,AGGCCGGGCT,1.02
4,AGGCCGTGTA,0.977
5,AGGCCTTAG,0.994
6,AGGCGAGCTT,0.953
7,AGGCGCCGGG,0.987
8,AGGCGCGTCA,0.999
9,AGGCGGATCC,1
10,AGGCGTCG,1.06
11,AGGCGTGTAA,0.995
12,AGGCTAACTC,1.02
13,AGGCTACAGT,1
14,AGGCTACGTT,1.03
15,AGGCTACTT,1.02
16,AGGCTAGCCG,1.02
17,AGGCTAGTTT,0.959
18,AGGCTGCGTA,0.995
19,AGGCTGGGTT,1.01
20,AGGCTGTG,1.06
21,AGGCTTAAAA,0.998
22,AGGCTTATGG,1.13
23,AGGCTTATGT,0.985
